Laboratory results reported in patent US20130023585A1, “Neuraminidase Inhibitors” (TSRL, INC., priority 2010, published 2013).

Conditions: oral, LC/MS/MS

CC(=O)N[C@H]1[C@H]([C@H](O)[C@H](O)CO)OC(C(=O)OC(OC(=O)[C@H](N)C(C)C)C(C)C)=C[C@@H]1NC(=N)N (stereo partly shown) [ZAN-Isp-Val]
species detectable in plasma after administration of the analog: only the Zanamivir was detectable in plasma
